According to PubChem BioAssay AID1347071 (National Center for Advancing Translational Sciences (NCATS), 2019):
Out of some 410,000 compounds screened, about 260 (0.063%) were called active. Inconclusive means that the source gave no clear call. Such entries were picked first, then a sample of the others. Calls follow the shape of the dose curve; as a rule, active = well fitted activation curve with a large enough effect; inconclusive = small, poorly fitted or top-dose-only effect; inactive = no such curve, though single readings can be large or run the other way. Potencies of inconclusive entries are left out as doubtful fits.
Potency is read from the fitted curve at half-maximal effect; tags tell the direction and shape of the fitted curve.

Assay: qHTS for compounds that reverse cellular toxicity of Amyloid beta (A-beta) peptide in yeast: Primary Screen; also: nearly all actives have a fitted effect of over 55% in size
Details: yeast expressing A-beta42, growth rescue, OD600, 48 h; growth rescue: at 46.1 µM (top of the series), 0% DMSO, 100% iron-clioquinol control
Procedure, shortened: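 Growth rescue measured by 600 nm absorbance after 48 h yeast culture at 30 C with compound. Values normalized between DMSO and an equimolar ferric chloride plus clioquinol control.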
For `O=C(NCCc1ccccc1)C1COc2ccccc2C1` (centres undefined), the Potency was inconclusive [activator, partial curve].
In the case of `CCCOc1ccc(CN(CCC#N)C(=S)NC(=O)c2ccccc2)cc1`, the Potency is reported as inconclusive [activator, partial curve, poor fit].
In the case of `Cc1cccc(NC(=S)NC(=O)CCc2ccccc2)c1C`, the Potency is reported as inconclusive [activator, partial curve, poor fit].
With `CCC(=O)Nc1cc(-c2nc3ccccc3s2)c(Cl)cc1Cl` the Potency was “inactive”.
In the case of `O=C(COC(=O)Cc1ccc(Br)cc1)NC1CCCCCC1`, the Potency is reported as inconclusive [activator, full curve].
For `COc1cc(OC)cc(C(=O)N2CCN(c3ccccc3F)CC2)c1`, the Potency was “inactive”.
In the case of `Oc1cc(Nc2ccccc2)cc2cccnc12`, the Potency is reported as inconclusive [activator, single point].
With `Cn1c(=O)c2c(ncn2CC(=O)OCC(=O)NCc2ccc(F)cc2)n(C)c1=O` the Potency was “inactive”.
In the case of `O=C(Nc1cccnc1)c1ccc(S(=O)(=O)N2CCCCCC2)cc1`, the Potency is reported as inconclusive [activator, partial curve].
For `COC(=O)C1NN=C(C(=O)c2ccc(Cl)cc2)C1c1ccc(OC)cc1` (centres undefined), the Potency was inconclusive [activator, single point].
In the case of `C=CCc1ccc(OCCn2nnc3ccccc32)c(OC)c1`, the Potency is reported as inconclusive [activator, partial curve, poor fit].
For `CN(Cc1ccccc1)C(=O)c1ccc(Nc2nc(C(N)Cc3ccc(C(F)(F)F)cc3)cs2)nc1` (centres undefined), the Potency was inconclusive [activator, single point].
For `COCCn1c(=NC(=O)CSC(C)=O)sc2cc(OC)ccc21`, the Potency was inconclusive [activator, full curve, poor fit].
For `CCCSc1nnc(Nc2ccccc2C)s1`, the Potency was inconclusive [activator, partial curve, poor fit].
In the case of `CCc1ccc(S(=O)(=O)/N=C2\C=C(NS(=O)(=O)c3ccccc3)C(=O)c3ccccc32)cc1`, the Potency is reported as inconclusive [activator, full curve].
With `C=CCn1c(Cc2cccc3ccccc23)n[nH]c1=S` the Potency was inconclusive [activator, single point].
In the case of `CNC(=O)c1ccc(Nc2nnc(-c3ccc(O)cc3)c3ccccc23)cc1`, the Potency is reported as inconclusive [activator, partial curve, poor fit].
In the case of `CCOc1ccc(S(=O)(=O)NCc2ccccc2OC)cc1`, the Potency is reported as inconclusive [activator, single point].
With `Nc1cc2c(cc1C(=O)c1ccccc1F)OCCO2` the Potency was “inactive”.
For `Nc1nc(SCc2ccccc2Cl)c2ncn(C3OC(CO)C(O)C3O)c2n1` (centres undefined), the Potency was “inactive”.
For `Cc1cc(C)n(CC(O)COc2ccc(C(C)(C)C)cc2)n1` (centres undefined), the Potency was inconclusive [activator, partial curve].
In the case of `Cc1ccc2ccc(C(Nc3ccccc3)c3ccc(C(C)C)cc3)c(O)c2n1` (centres undefined), the Potency is reported as inconclusive [activator, single point].
For `Cc1c(CC(=O)NCCC(C)C)c(=O)oc2cc3c(cc12)CCC(C)(C)O3`, the Potency was inconclusive [activator, single point].
For `O=C(NC(=S)Nc1ccc(S(=O)(=O)N2CCCC2)cc1)C1CC1`, the Potency was inconclusive [activator, partial curve].
In the case of `COc1ccccc1NS(=O)(=O)c1ccc(O)cc1`, the Potency is reported as inconclusive [activator, partial curve].
In the case of `COc1cccc(Cn2cnc3c(NS(=O)(=O)c4ccc(Cl)cc4Cl)c(C)c(C)cc32)c1`, the Potency is reported as inconclusive [activator, partial curve, poor fit].
With `COCCN(Cc1ccco1)C(=O)Cn1ncc2c([nH]c3ccccc32)c1=O` the Potency was “inactive”.
With `Cc1cc(C)cc(NC(=O)c2cn3c4c(ccc(Cl)c4c2=O)OC(C)C3)c1` (centres undefined) the Potency was “inactive”.
With `S=c1ccc2ccccc2[nH]1` the Potency was inconclusive [activator, single point].
For `COc1ccc(Nc2nc(-c3ccc4c(c3)NC(=O)CO4)cs2)cc1`, the Potency was “inactive”.
With `COC(=O)CC1C(=O)NCCN1C(=O)c1ccc([N+](=O)[O-])cc1` (centres undefined) the Potency was inconclusive [activator, full curve].
For `O=C(COC(=O)C12CC3CC(CC(C3)C1)C2)NCCCc1ccccc1`, the Potency was inconclusive [activator, partial curve, poor fit].
For `CC(C)N(C(=O)[C@H]1CC(CC(=O)NCCC2=CCCCC2)C(=O)N2CCc3c([nH]c4ccccc34)[C@]12C)C(C)C` (some centres undefined), the Potency was “inactive”.
In the case of `Cc1cccc(Nc2ncnc3onc(-c4cccc(Cl)c4)c23)c1`, the Potency is reported as “inactive”.
For `CNC(=S)N/N=C(\C)c1ccc2c(c1)OCO2`, the Potency was inconclusive [activator, single point].
With `CC(C)(C)NC(=S)NCC1CC1` the Potency was inconclusive [activator, single point].
With `Cc1c(C(=O)NCc2ccc(F)cc2)sc(=O)n1Cc1ccc(Cl)c(Cl)c1` the Potency was inconclusive [activator, partial curve, poor fit].
For `CC(C)Oc1ccc(CNC(=O)c2cc3cccc4c3n2CC(C)S4)cc1` (centres undefined), the Potency was inconclusive [activator, single point].
In the case of `COc1ccccc1/C=C1\SC(=O)N(CC(=O)NCCCn2ccnc2)C1=O`, the Potency is reported as “inactive”.
In the case of `Cc1ccc2c(c1)Sc1ccccc1CC2=O`, the Potency is reported as “inactive”.
For `Cc1cc(C)nc(N/N=C/c2cc(Br)ccc2O)n1`, the Potency was inconclusive [activator, partial curve, poor fit].
For `O=C(O)c1ccc(N2C(=O)CC(SC(=Nc3ccccc3)Nc3ccccc3)C2=O)cc1` (centres undefined), the Potency was “inactive”.
In the case of `S=C(NCCc1cccc(Cl)c1)NC1CCCCC1`, the Potency is reported as active: 7.08 µM.
For `CCOc1ccc(CCNC(=O)C(CC(C)C)N2Cc3ccccc3C2=O)cc1OCC` (centres undefined), the Potency was “inactive”.
With `COc1ccc(-c2cc(C)no2)cc1S(=O)(=O)N1CCN(c2ccccn2)CC1` the Potency was inconclusive [activator, partial curve, poor fit].
For `CC(C)CCOc1ccc(Cn2c(=O)sc3ccccc32)cc1`, the Potency was inconclusive [activator, single point].
In the case of `O=C1CC(c2ccccc2)CC(O)=C1C=NCCc1ccccc1` (centres undefined), the Potency is reported as “inactive”.
In the case of `O=C(NC1CCCCCCC1)c1ccc(F)cc1`, the Potency is reported as inconclusive [activator, full curve].
In the case of `CCOC(=O)Cn1c(=O)n(-c2ccccc2OC)c2nc(-c3ccccc3)nc(C(N)=O)c21`, the Potency is reported as “inactive”.
For `COc1ccc(C2=CC(c3ccccc3Cl)n3nc(-c4ccc(C)cc4)nc3N2)cc1` (centres undefined), the Potency was inconclusive [activator, partial curve, poor fit].
For `COc1cnc(-c2ccccn2)nc1Oc1ccc(F)cc1F`, the Potency was active: 22.4 µM.
With `CCn1c(C(=O)NCc2ccc(C)cc2)cc2sc(Cl)cc21` the Potency was “inactive”.
With `Oc1ccccc1/C=N/NC(=S)NC1CC2C=CC1C2` (centres undefined) the Potency was active: 11.2 µM.
In the case of `CCN(CC)S(=O)(=O)c1ccc(C(=O)NCc2ccc3c(c2)cc(C)n3C)cc1`, the Potency is reported as “inactive”.
With `O=C(NCc1ccccc1)c1ccc2nnsc2c1` the Potency was inconclusive [activator, single point].
In the case of `Cc1ccc(NC(=O)C2CCCN(c3cnccn3)C2)cc1Cl` (centres undefined), the Potency is reported as “inactive”.
With `O=C(C(=O)c1cccnc1)c1cccnc1` the Potency was inconclusive [activator, full curve].
In the case of `COc1c(Cl)cc(C(=O)O)cc1Cl`, the Potency is reported as “inactive”.
For `CC(C)Cc1nnc(NC(=O)CCC(=O)N2CCN(c3ccccn3)CC2)s1`, the Potency was “inactive”.
In the case of `CC(=O)c1ccc(Nc2nc(C)cc(C)n2)cc1`, the Potency is reported as “inactive”.
With `CC(=O)Nc1cccc(NC(=O)CSc2ccc(-c3ccccn3)nn2)c1` the Potency was inconclusive [activator, single point].
With `CNC(=S)N/N=C/c1cn(CCOc2ccc(OC)cc2)c2ccccc12` the Potency was inconclusive [activator, single point].
For `OC(COCC(F)(F)C(F)(F)C(F)(F)C(F)F)Cn1c2ccc(Cl)cc2c2cc(Cl)ccc21` (centres undefined), the Potency was inconclusive [activator, partial curve].
For `CCC(Sc1nc2cc(OC)c(OC)cc2c(=O)n1Cc1ccco1)C(=O)NCCOC` (centres undefined), the Potency was “inactive”.
In the case of `COc1ccc(C(=O)NNC(=S)NC(=O)c2ccc(Cl)cc2)cc1`, the Potency is reported as inconclusive [activator, full curve].
In the case of `O=C1N/C(=N\N=C\c2ccc3ncccc3c2)SC1Cc1ccc(SC(F)F)cc1` (centres undefined), the Potency is reported as “inactive”.
In the case of `CCOc1ccc(NC(=O)CSc2oc(-c3cccs3)nc2S(=O)(=O)c2ccc(C)cc2)cc1`, the Potency is reported as “inactive”.
In the case of `COc1ccc(C(C)NC(=O)C2CCCC2)cc1OC` (centres undefined), the Potency is reported as inconclusive [activator, single point].
For `COc1ccc(OC)c(NC(=S)N2CCc3ccccc3C2)c1`, the Potency was inconclusive [activator, single point].
For `Cc1ccc(/C=C/c2onc(C)c2S(=O)(=O)N2CCC(C(=O)Nc3ccc(OC(F)(F)F)cc3)CC2)cc1`, the Potency was “inactive”.
In the case of `CC1CC(C)(C)NC(=S)N1CCC(=O)N1c2ccccc2CC1C` (centres undefined), the Potency is reported as inconclusive [activator, single point].
With `Cc1nn(Cc2ccccc2)c(C)c1NC(=O)c1cc(-c2ccco2)on1` the Potency was inconclusive [activator, full curve].
In the case of `Cc1cc2occ(CC(=O)NCc3cccs3)c2cc1C(C)C`, the Potency is reported as “inactive”.
In the case of `CC(=O)Nc1sc(N/N=C\c2ccc(O)cc2)nc1-c1cccs1`, the Potency is reported as inconclusive [activator, partial curve, poor fit].
